The source gives no read counts; variants with many changes may rest on few reads.
B1: LINE1-mini (parent)
chain: GGCAGAGCUCAACACAGCGUGGCAAAGUGGCUGUGGCUAGACUGCC

Variants of: B1
Test: self-cleavage, relative activity (ratio to wild type); higher = more cleavage; in vitro, sequencing; the parent is a self-cleaving ribozyme
G7C A11G C31G showed a self-cleavage of 0.02. With G7A C15A C37U C46U the self-cleavage was 0.04. In the case of G7A U9G G17C C18A G27U, the self-cleavage is reported as 0.04. In the case of G7C A25U A39C, the self-cleavage is reported as 0.09. G7A G33U C46U gave a self-cleavage of 0.23. Work on G7A G27C C42U G44A yielded a self-cleavage of 0.19. For G7A G17C U28A G29U U32A, the self-cleavage was 0.13. For G7A G17A C23A A24C A26G A41U, the self-cleavage was 0.04. In the case of G7C C8G G29C U34A C37G, the self-cleavage is reported as 0.11. In the case of G7A G21A C31A G36A, the self-cleavage is reported as 0.19. With G7C A11G A12G G40A the self-cleavage was 0.02. Work on G7A U32C G40A yielded a self-cleavage of 0.06. With G7A C13U A25C G40C the self-cleavage was 0.11. G7A G27C G35A A39U A41G showed a self-cleavage of 0.01. For G7C C10U G21A, the self-cleavage was 0.91. Work on G7C C10A C18G U28A G36C yielded a self-cleavage of 0.02. With G7A C18A U32A A41C the self-cleavage was 0.11. For G7A G27C U28G G44C, the self-cleavage was 0.1. For G7C C8U C31G C46A, the self-cleavage was 0.12. In the case of G7A G22C C23A A24G, the self-cleavage is reported as 0.07. Work on G7A C18U G36C yielded a self-cleavage of 0.12. In the case of G7C A26G U32C A39U G40A, the self-cleavage is reported as 0.15. In the case of G7C C8U U20A C46A, the self-cleavage is reported as 0.14. G7C C13A A26U U38C showed a self-cleavage of 0.03. Work on G7C C10U G21A G27U yielded a self-cleavage of 0.02. In the case of G7A G33A C37G A41U, the self-cleavage is reported as 0.01. For G7C C13G C23U A26U G30A, the self-cleavage was 0.01. For G7A G21U C37A U38A G40C, the self-cleavage was 0.23. G7C C8U A12G G19C C37A showed a self-cleavage of 0.02. With G7A C23A A24U G35C the self-cleavage was 0.03. Work on G7C C8U G29C G36C C42A C45U yielded a self-cleavage of 0.02. Variant G7C C13A G19A A39C has a self-cleavage of 0.02. G7C A26G G29A G40U showed a self-cleavage of 0.1. Variant G7A C15U C18U C31U has a self-cleavage of 0.08. With G7C C8U C31A the self-cleavage was 0.16. With G7C C8U U9C G29U the self-cleavage was 0.02. G7A G22U G27U gave a self-cleavage of 0.07. Work on G7A G22U G27C yielded a self-cleavage of 0.09. G7A C18U U38C C42G showed a self-cleavage of 0.02. Variant G7C C10A C13U G29A C31A has a self-cleavage of 0.07. For G7A U9C A11U G40U, the self-cleavage was 0.01. For G7A C13G C45G C46G, the self-cleavage was 0.04. In the case of G7A U28A U38G G44C, the self-cleavage is reported as 0.02. G7A U38A U43C showed a self-cleavage of 0.06. With G7A U9C C18U G19C G40C the self-cleavage was 0.04. G7C A11C C18A G36U U38G C42G showed a self-cleavage of 0. For G7C A11U C13G G36U U38C, the self-cleavage was 0.02. Variant G7C A14C A16C G30U has a self-cleavage of 0.11. For G7A U9A A12U A14U C37U, the self-cleavage was 0.02. G7C A26G C37U showed a self-cleavage of 0.12. G7A C15G C31G C42U C46A gave a self-cleavage of 0.05. Variant G7A G21A U34A has a self-cleavage of 0.03. Work on G7A G29A C31G yielded a self-cleavage of 0.03. G7C A11C G33U gave a self-cleavage of 0.01. G7C C8A G40U gave a self-cleavage of 0.15. With G7C C10G A39U the self-cleavage was 0.02. For G7A C15U G27A, the self-cleavage was 0.9. For G7A C13A G21U G30A, the self-cleavage was 0.17. G7A G21U U32A showed a self-cleavage of 0.14. With G7A U34C A39G C42A the self-cleavage was 0.03. Variant G7A U28G A39U has a self-cleavage of 0.09. Variant G7C A11U G29C has a self-cleavage of 0.02. G7A C31U C42G showed a self-cleavage of 0.06. With G7C C8A G17U A24C G30A A41U the self-cleavage was 0.15. For G7C C10A A14U, the self-cleavage was 0.03. Variant G7A C13G C15U U34C C37A has a self-cleavage of 0.22. Variant G7A G19A A26U C37U U38G has a self-cleavage of 0.02. Variant G7C C10A A16G U32A G44C has a self-cleavage of 0.02. Variant G7A U9G C10G A12G G29A has a self-cleavage of 0. In the case of G7C C8A U32A C45G, the self-cleavage is reported as 0.15. Variant G7C A16G C42A has a self-cleavage of 0.01. In the case of G7A C23U C31U U32G A41G G44U, the self-cleavage is reported as 0.22. With G7A G21A G36A U38G the self-cleavage was 0.01. G7A C15A U28G C42A showed a self-cleavage of 0.69. For G7A C15U U28G G29C, the self-cleavage was 0.07. Variant G7A C13U A16C C18G has a self-cleavage of 0.04. Variant G7A C23U A39U C45A has a self-cleavage of 0.07. With G7C A16G G36U the self-cleavage was 0.1. Work on G7C C8U C13U yielded a self-cleavage of 0.32. Variant G7C C8A C46U has a self-cleavage of 0.18. For G7C A16U G44U, the self-cleavage was 0.02. Variant G7A C23U G29A U32G has a self-cleavage of 0.74. G7C C10U C18U G19C gave a self-cleavage of 0.02. G7A G19A C31A C45G showed a self-cleavage of 0.17. In the case of G7C C8A A16G A26U G36U U38A, the self-cleavage is reported as 0.4. Work on G7C C10U U32A yielded a self-cleavage of 0.03. For G7A G22A C45U C46U, the self-cleavage was 0.17. For G7C A11C G40U C46A, the self-cleavage was 0.06. In the case of G7C C13A C15A G40U, the self-cleavage is reported as 0.04. For G7A C13U C15A U32C C45U, the self-cleavage was 0.04. G7A U9A C15G U20C G29A gave a self-cleavage of 0.15. For G7A G17C G19U, the self-cleavage was 0.08. Variant G7C C8U A26C G29U G30U C31U has a self-cleavage of 0.17. For G7C C10A G33U U38A U43C, the self-cleavage was 0.03. Variant G7A G17A A25U A26C A39G G44C has a self-cleavage of 0.05. G7A C18U U43A gave a self-cleavage of 0.12. G7A C15U G27U G44U showed a self-cleavage of 1.07. G7C A12C C18G gave a self-cleavage of 0.01. For G7A G30C U38G, the self-cleavage was 0.03. G7A G21U U28G C45A gave a self-cleavage of 0.1. Work on G7A G21C G27U yielded a self-cleavage of 0.05. In the case of G7A C18A C42A, the self-cleavage is reported as 0.24. G7A C13U A26G showed a self-cleavage of 1.03. For G7A G22C A26U C37G A39G, the self-cleavage was 0.01. G7A G21C G35U A41U gave a self-cleavage of 0.13. For G7A C18U G22A U32C C37A, the self-cleavage was 0.05. With G7C A16G U38A the self-cleavage was 0. Work on G7C C8G G36U yielded a self-cleavage of 0.11. For G7A G29A C42U, the self-cleavage was 0.16. Work on G7C C8G G40U yielded a self-cleavage of 0.35. Work on G7C C10A G17U G33U yielded a self-cleavage of 0.04. G7A C13G U20A G36A gave a self-cleavage of 0.2. G7C A12C U34A G44U C46U gave a self-cleavage of 0.02. For G7C A11C G22U C42A, the self-cleavage was 0.02. G7A U9G C18U G35U U38A gave a self-cleavage of 0.01. Variant G7A G29A G44A has a self-cleavage of 0.07. G7A G19A C23U G33C showed a self-cleavage of 0.15. Work on G7A U20A G29U G40U G44U yielded a self-cleavage of 0.11. G7C A16C U20A G27A G35U gave a self-cleavage of 0.02. With G7A C23U A41G the self-cleavage was 0.58. For G7A G36A A41U, the self-cleavage was 0.01. For G7A U32A G35A, the self-cleavage was 0.19. Variant G7A G29A G40C has a self-cleavage of 0.16. With G7A C13G C37A C46A the self-cleavage was 0.03. G7A G19C G30U gave a self-cleavage of 0.06. Work on G7C A11U A16C A25C yielded a self-cleavage of 0.01. For G7A U20A A41U, the self-cleavage was 0.11. Variant G7A G29C U43C C46A has a self-cleavage of 0.07. In the case of G7A G22A A24C, the self-cleavage is reported as 0.15. G7A U9G A26U C42U gave a self-cleavage of 0.06. G7A C13A G33C gave a self-cleavage of 0.1. In the case of G7A G17C G40C, the self-cleavage is reported as 0.03. Variant G7C C8U C10U has a self-cleavage of 0.05. With G7A C18A G27U G40A the self-cleavage was 0.09. G7A G17C C37A showed a self-cleavage of 0.17. In the case of G7A G17C C37A C45A, the self-cleavage is reported as 0.11. Work on G7A U9G C15A G30U U43C yielded a self-cleavage of 0.06. With G7A G17C U34A the self-cleavage was 0.02. G7A C15U A16U U34G showed a self-cleavage of 0.11. G7A U9G U34C U38A showed a self-cleavage of 0.02. Work on G7A G17C G35C yielded a self-cleavage of 0.12. G7A U9G A16U C18G G30A gave a self-cleavage of 0.08. With G7A U34G U43C G44C the self-cleavage was 0.01. Work on G7A C37A C42U U43C C45A yielded a self-cleavage of 0.09. For G7C A14G G35U G40U, the self-cleavage was 0.11. Work on G7A C15U U20A G27U U28G G40U yielded a self-cleavage of 0.25. G7A C18U U34G C37G showed a self-cleavage of 0.03. For G7A C13U A24U A39U, the self-cleavage was 0.08. G7C A16U G22A U38A G44C gave a self-cleavage of 0.02. Variant G7C A25C G30U G36A has a self-cleavage of 0.05. In the case of G7A C13A G19U G30A, the self-cleavage is reported as 0.65. Variant G7A G36C A39G has a self-cleavage of 0.02. With G7A G27A A41G the self-cleavage was 0.14. For G7C C10A A26G G27A, the self-cleavage was 0.02. For G7A C23U A24G G30U G35C A39G, the self-cleavage was 0.02. G7C A14U G36C G40C showed a self-cleavage of 0.13. With G7C A26C C31G U32C C37A the self-cleavage was 0.01. G7C A16U G17A G22C C23U U38G showed a self-cleavage of 0.02. Work on G7A G17C G29A G30C yielded a self-cleavage of 0.01. G7A U28C G36C showed a self-cleavage of 0.06. With G7C C10A G22A A24C the self-cleavage was 0.01. Variant G7A U32G C37G has a self-cleavage of 0.02. With G7C A12G G19U A26C the self-cleavage was 0.02. Work on G7C A14G G30U U43C yielded a self-cleavage of 0.07. With G7C A26C U43A the self-cleavage was 0.54. For G7A U9C G19A, the self-cleavage was 0. In the case of G7A U9C G19C, the self-cleavage is reported as 0.02.

Source: the RNAGym collection of RNA variant scans (doi:10.7554/elife.90254)
